Measured values published in PubChem BioAssay AID493208 (National Center for Advancing Translational Sciences (NCATS), 2011).
Hit rate of the full screen: of about 44,000 compounds, about 340 (0.77%) were called active. Inconclusive results (about 5%) are left out. Calls follow the shape of the dose curve; as a rule, active = well fitted inhibition curve with a large enough effect; inconclusive = small, poorly fitted or top-dose-only effect; inactive = flat fitted curve, though single readings scatter. This is one part of the list.

assay: Acumen qHTS Assay for Inhibitors of the mTORC1 Signaling Pathway in MEF (Tsc2-/-, p53-/-) Cells: Sytravon; conditions: phospho-rpS6 immunofluorescence/PI, 24 h; series mostly up to 38.3 µM; activity change, negative = inhibition: at the top concentration; also: nearly all actives have a fitted effect of over 50% in size
Source text: NIH Molecular Libraries Probe Production Centers Network [MLPCN] NIH Chemical Genomics Center [NCGC] MLPCN Grant: NS059428-01 Assay Submitter (PI): Blenis, John; Hoffman, Greg; Harvard University NCGC Assay Overview: The mammalian target of rapamycin (mTOR) is an intracellular serine/threonine kinase Aberrant regulation of mTOR signaling plays a causative role in a number of human diseases, including cancer, benign tumors such as lymphangioleiomyomatosis (LAM) and Tuberous Sclerosis Complex (TSC), and metabolic diseases such as diabetes and obesity. This project aims to identify inhibitors of ribosomal protein S6 (rpS6) phosphorylation. The phosphorylation of rpS6 is a key event downstream of mTOR activation. The assay uses a phospho-specific antibody of phospho-rpS6 to detect inhibitors of mTOR activation. Mutations in the Tsc1 and Tsc2 genes are the underlying genetic lesions responsible for TSC, causing constitutive activation of the mTORC1 pathway and leading to profound effects on cell metabolism. Aberrant metabolism in cancer has recently received significant attention as a target to develop therapeutic agents in the treatment of cancer.1 As Tsc2-/- cells have lost the ability to respond to energy and growth factor deprivation, these cells are unable to properly down regulate cellular biosynthetic processes in response to metabolic stress, and are thus extremely sensitive to glucose deprivation-induced death.2 A central goal of this project is to explore the unique cell survival and metabolic properties of cells with Tsc1 or Tsc2 by screening for compounds that selectively target the Tsc2-/- MEFs by screening both Tsc2-/- and WT MEF cell lines. We hope to better understand these aspects of TSC physiology in order to exploit them for therapeutic benefit.
NCGC Acumen Assay Protocol Summary: For quantitative high throughput analysis of mTORC1 signaling, we developed a cell-based assay for immuno-fluorescence based detection of rpS6 phosphorylation on the Acumen Explorer that will be used a platform for the primary small molecule screen. Mouse embryonic fibroblasts (MEFs) are cultured in 1536-well plates using DMEM + 10% FBS. Twenty-four hrs after plating, test compounds (solubilized in DMSO) are delivered and incubated with the cells for 24 hrs at 37 degree Celsius. Following the incubation, media with compound is aspirated and the cells are fixed in 4% paraformaldehyde (PFA) containing PBS + 0.2% TX-100. Next, PFA is aspirated, cells are washed two times with PBS plus 0.2% TX-100 and the cells are blocked for 1 hr at room temperature (blocking buffer: LiCOR Blocking Buffer plus 0.2% TX-100). […] Cells are washed two times with PBS plus 0.2% TX-100, and stained with 10 uM propidium iodide (PI) for 20-25 minutes for cell number measurement (1:500 dilution of Hoescht staining is also added for IN Cell imaging). The plates are scanned on the Acumen Explorer laser scanning instrument (TTP Labtech) using the 488nm laser for simultaneous excitation of the Alexa-488 and PI. […] The normalized phospho-S6 staining is calculated as the ratio of the integrated Alexa 488 intensity divided by the integrated PI intensity for the single concentration rapamycin control (7.5 nM) and DMSO columns. […] Inhibition of the pathway is defined based on the normalized phospho-S6 intensity in rapamycin treated cells. Active cells are defined as those with a normalized phospho-S6 staining above this threshold, and each treatment is reported as the % positive cells in the well, where thresholds are defined by selecting wells with the highest and lowest signal and differentiating between the % non-active and % active populations. In addition to the pathway specific phospho-S6 endpoint, the number of PI stained cells from the Acumen is recorded as a measure of cell viability. The primary screen was performed with a MEF cell line in a defined genetic background, Tsc2-/-, p53-/- cell line stably transfected with an empty vector control (Tsc2-/- MEF).

SMILES	activity change, negative = inhibition
COc1ccc(OC)c(NC(=O)Cn2ccn(-c3ccc(F)cc3)c(=O)c2=O)c1	inactive: -2.14%
O=C(NCc1ccc2c(c1)CCN2C(=O)c1ccncc1)c1ccccc1Br	inactive: -1.32%
COc1ccc(C)cc1S(=O)(=O)Nc1cccc(-c2ccc(N3CCCC3)nn2)c1	inactive: -0.367%
CCCNC(=O)CCn1nc(-c2ccc(C)cc2)c2ccccc2c1=O	inactive: 1.3%
Cc1ccc2ncc(C(=O)Nc3cccc(C(F)(F)F)c3)c(=O)n2c1	inactive: -1.39%
CC(C)c1ccc(NC(=O)c2cc3c(=O)oc4ccccc4c3s2)cc1	inactive: 1.62%
CCOc1ccc(CCNC(=O)c2cc3c(=O)n(C)c4ccccc4c3s2)cc1OCC	inactive: -5.24%
COc1ccccc1NC(=O)c1sc2cccc(Cl)c2c1Cl	inactive: 6.6%
CCOC(=O)c1ccc2ncc(C(=O)OCC)c(NCCc3ccc(OC)c(OC)c3)c2c1	inactive: -9.29%
CCCC12CN3CC(C)(CN(C1)C3c1ccc(CC)cc1)C2=O (configuration not stated)	inactive: -12.6%
CCc1ccc(OCC(=O)NCC(c2ccc(Cl)cc2)N2CCOCC2)cc1 (configuration not stated)	inactive: -9.54%
O=c1cc2nc(-c3ccccc3)nc(SCc3cccc(Br)c3)n2[nH]1	inactive: 3.89%
O=C(CC(c1cccs1)N1Cc2ccccc2C1=O)Nc1ccccc1 (configuration not stated)	inactive: 0.619%
CCN1CCN(C(=O)Cn2ncc3c4ccccc4n(Cc4ccccc4F)c3c2=O)CC1	inactive: 1.24%
Cc1cccc(N2CCN(C(c3ccc(F)cc3)c3nnc(-c4ccccc4)o3)CC2)c1C (configuration not stated)	inactive: 7.2%
COc1cccc(N2CCN(C(=O)c3cnc4c(C)cccn4c3=O)CC2)c1	inactive: -3.22%
CC(C)Oc1ccc(CNC(=O)C2CCN(C(=O)N3CCOc4ccc(Cl)cc43)CC2)cc1	inactive: 11.7%
Cc1ccccc1-c1nc(NC(=O)CSc2ncnc3sc4c(c23)CCCC4)ns1	inactive: -2.99%
COc1ccc(N2CCN(C(CNC(=O)C(=O)NCc3ccc(C)cc3)c3cccnc3)CC2)cc1 (configuration not stated)	inactive: -3.29%
Cc1ccc(Cl)cc1N1CCN(C(=O)C(C)n2ncn3cccc3c2=O)CC1 (configuration not stated)	inactive: -1.13%
CCCCN(CCCC)C(=O)c1cc2c(=O)n3ccccc3nc2s1	inactive: -27.5%
Cc1cccc(N2CCN(S(=O)(=O)c3ccc(F)c(C(=O)Nc4cccc(Cl)c4C)c3)CC2C)c1 (configuration not stated)	inactive: 0.359%
CCNC(=O)c1c(NC(=O)c2cc(=O)c3ccc(C)c(C)c3o2)sc2c1CCCC2	inactive: -1.58%
O=S(=O)(Nc1ccc(-c2ccc(N3CCCCCC3)nn2)cc1)c1ccc(C(F)(F)F)cc1	inactive: 0.873%
COc1ccc(Nc2ncnc3c2cnn3C)c(OC)c1	inactive: 0.864%
Cc1nn(-c2ccccc2)c2c1cc1c(=O)[nH]c(=O)nc-1n2-c1cccc(C(F)(F)F)c1	inactive: -7.8%
O=C(NCCSc1c(-c2ccc(Cl)cc2)[nH]c2ccccc12)c1ccc(S(=O)(=O)N2CCOCC2)cc1	inactive: -12.2%
